Experimental findings from PMC4336329 (PLoS ONE, 2015) are described below.

Hit rate of the full screen: of about 310,000 compounds, about 14,000 (4.5%) showed an effect of 50% or more. The effect is printed as a negative number. This is one part of the list.
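Also: peak tail current of the secondary pulse compared with the same well before compound.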

Sequence of human ether-à-go-go-related gene (hERG) potassium channel (Q12809 whole entry, looked up): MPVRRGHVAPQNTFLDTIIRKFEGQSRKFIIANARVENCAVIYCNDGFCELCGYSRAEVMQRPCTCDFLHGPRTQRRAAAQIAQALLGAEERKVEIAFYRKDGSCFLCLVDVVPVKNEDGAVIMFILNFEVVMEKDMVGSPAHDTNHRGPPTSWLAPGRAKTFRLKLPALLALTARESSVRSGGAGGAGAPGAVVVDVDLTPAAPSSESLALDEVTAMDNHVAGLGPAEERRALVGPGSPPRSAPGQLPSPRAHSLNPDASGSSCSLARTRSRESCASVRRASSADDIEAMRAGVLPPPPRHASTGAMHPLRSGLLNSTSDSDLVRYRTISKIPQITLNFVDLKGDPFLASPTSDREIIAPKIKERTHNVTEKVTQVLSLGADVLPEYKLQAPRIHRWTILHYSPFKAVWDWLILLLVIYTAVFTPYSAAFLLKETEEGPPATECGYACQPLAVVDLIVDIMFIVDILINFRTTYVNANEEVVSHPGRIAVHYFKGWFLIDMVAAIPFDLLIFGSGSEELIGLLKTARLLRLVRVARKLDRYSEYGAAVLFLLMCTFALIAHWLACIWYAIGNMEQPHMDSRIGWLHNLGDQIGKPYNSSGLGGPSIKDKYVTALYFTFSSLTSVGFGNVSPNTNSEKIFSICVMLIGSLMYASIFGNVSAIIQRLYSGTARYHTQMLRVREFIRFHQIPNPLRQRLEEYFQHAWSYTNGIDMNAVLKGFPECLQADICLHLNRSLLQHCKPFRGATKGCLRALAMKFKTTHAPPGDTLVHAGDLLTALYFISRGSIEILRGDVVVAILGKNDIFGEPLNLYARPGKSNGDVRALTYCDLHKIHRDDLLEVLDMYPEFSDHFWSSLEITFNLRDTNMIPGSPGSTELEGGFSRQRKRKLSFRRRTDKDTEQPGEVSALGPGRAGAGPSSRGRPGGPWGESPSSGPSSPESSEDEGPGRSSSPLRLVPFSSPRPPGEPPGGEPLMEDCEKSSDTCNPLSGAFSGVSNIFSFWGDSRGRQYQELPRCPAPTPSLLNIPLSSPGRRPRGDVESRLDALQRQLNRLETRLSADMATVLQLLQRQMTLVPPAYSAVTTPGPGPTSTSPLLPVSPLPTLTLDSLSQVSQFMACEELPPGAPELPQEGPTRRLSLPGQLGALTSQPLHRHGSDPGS

This assay has as its target human ether-à-go-go-related gene (hERG) potassium channel (human, UniProt Q12809). In words: primary screen, population patch clamp on CHO cells stably expressing hERG.
For the molecule `Cc1cccc(NC(=S)N2CCC(N(C)CC3CCCO3)CC2)c1` (stereo not shown), the “hERG current change (%, negative = inhibition) at 10uM” value is -32.3%. With `CCCCC(c1nnnn1C1CCCC1)N1CCN(C(=O)c2ccco2)CC1.Cl` (stereo not shown), the “hERG current change (%, negative = inhibition) at 10uM” value is -47%. Under `CN(C)c1nc(N)c([N+](=O)[O-])c(NCCO)n1` stands 0.948%; under `COc1ccccc1NC(=O)C1CC(=O)N(c2ccc(F)cc2)C1` (stereo not shown), 19.5%; under `COc1ccccc1C(=O)NC(=S)Nc1cccnc1Cl`, -12.7%. Take `Brc1cccc(-c2nc3cccnc3nc2-c2cccc(Br)c2)c1`: the “hERG current change (%, negative = inhibition) at 10uM” value was 2.17%. `COc1ccccc1NC(=O)COc1ccc(-c2nn(C)c(=O)c3ccccc23)cc1`: the “hERG current change (%, negative = inhibition) at 10uM” value is -26.3%. Then `CCOCCn1c(SCc2c(F)cccc2Cl)nc2c1c(=O)[nH]c(=O)n2C`, with -3.53%. As for `COc1ccc(-c2cc(=O)oc3cc(OCC(=O)N[C@@H](Cc4c[nH]c5ccccc45)C(=O)O)ccc23)cc1`, the “hERG current change (%, negative = inhibition) at 10uM” value was -4.79%. Then `CC(=O)Nc1ccc(NC(=O)C(C)Sc2n[nH]c(-c3cccs3)n2)cc1` (stereo not shown), with -12.3%. Under `CNC(=O)O/N=C/c1nn(C(=O)C(C)(C)C)cc1Br` stands -4.16%. Regarding `CC(C)CN(C1CCS(=O)(=O)C1)S(=O)(=O)c1ccc2ccccc2c1` (stereo not shown), the “hERG current change (%, negative = inhibition) at 10uM” value is reported as -18.2%. Then `N=C1/C(=C\c2coc3ccccc3c2=O)C(=O)N=C2SC(c3ccncc3)=NN12`, with -59%; and `COc1ccccc1C1C(C(N)=O)=C(C)Nc2nc(-c3ccccc3Cl)nn21` (stereo not shown), with 5.89%; and `CCOC(=O)c1ccccc1NC(=O)CSc1nc2[nH]ncc2c(=O)[nH]1`, with -2.32%. Under `COc1cc(/C=N/N(C)C)ccc1OC(=O)c1cccs1` stands 2.86%; under `OCCCc1nc2n(n1)C(c1ccccc1)C=C(c1ccccc1)N2` (stereo not shown), -17.3%. Under `CC(=O)N1CCN(c2ccc(NC(=O)c3ccc(C)cc3)cc2)CC1` stands 5.89%; under `O=C(CNC(=O)c1ccc2c(c1)OCO2)Nc1cccc(Br)c1`, 9.59%.

Take `Cc1ccc(C(=O)NCCc2nnc3ccc(SCC(=O)Nc4ccccc4F)nn23)cc1`: the “hERG current change (%, negative = inhibition) at 10uM” value is -12.7%.

On to `O=C(CN1c2ccccc2Sc2ccccc21)NNC(=O)Nc1ccc(Cl)cc1`, for which the “hERG current change (%, negative = inhibition) at 10uM” value was found to be 9.73%. Under `CCOc1ccc(-c2nc3c(s2)CCc2onc(-c4ccc(OC)cc4)c2-3)cc1` stands 8.95%; under `CCc1cc(-c2n[nH]c(C)c2-c2nc3ccccc3s2)c(O)cc1OCC(=O)NN`, -7.81%; under `CCOCc1c(C(=O)Nc2ccc(OC)nc2)oc2ccccc12`, -17.9%.

As to `Cc1ccc(S(=O)(=O)/N=C/c2c(O)ccc3ccccc23)cc1`, the “hERG current change (%, negative = inhibition) at 10uM” value is recorded as 7.66%.

As to `O=C(Nc1ccccc1N1CCOCC1)c1cc(Br)c(Br)s1`, the “hERG current change (%, negative = inhibition) at 10uM” value was -2.44%. Then `COc1ccc(OCC(=O)Nc2ccc3c(c2)nc(CCN2CCN(C)CC2)n3C)cc1`, with -8.47%; and `Cc1ccnc(NC(=O)Cn2c(=O)oc3cc(S(=O)(=O)N4CCCC4)ccc32)c1`, with -1.79%. With `CNc1nc(OCCNC(=O)Nc2ccccc2)nc(N2CCOCC2)n1`, the “hERG current change (%, negative = inhibition) at 10uM” value was 23.8%. Consider `CC(C)=NNc1cc([N+](=O)[O-])cc2c1C(=O)N(C)S2=O` (stereo not shown), for which the “hERG current change (%, negative = inhibition) at 10uM” value is on record as 14.8%. `Cc1nc(-c2c(C(=O)NNC(=O)Nc3c(C)cccc3C)noc2C)cs1`: the “hERG current change (%, negative = inhibition) at 10uM” value is given as 9.65%. Then `COc1ccc(NC(=O)NCCCN2CCCC2=O)c(OC)c1`, with -4.04%. Then `O=C(Nc1ccc(CN2CCS(=O)(=O)CC2)cc1)c1ccc(Cl)cc1`, with -18.8%; and `CCN(Cc1ccncc1)C(=O)c1cccc(S(=O)(=O)N2CCOCC2)c1`, with -9.65%; and `CCCCn1c(=O)c(C(=O)c2ccccc2)nc2ccccc21`, with -30.4%. Then `CCN(Cc1ccncc1)Cc1ccc(OC)cc1OC.O=C(O)C(=O)O`, with -51.4%; and `Cc1ccc(C)c(CN2CCCN(C(=O)Cn3ncc4c3-c3ccccc3OC4)C2)c1`, with -2.82%. On to `COc1cc(NC(=O)c2ccc(S(=O)(=O)N(C)C)cc2)cc(OC)c1OC`, for which the “hERG current change (%, negative = inhibition) at 10uM” value is -4.23%. Then `Cc1cc(=O)n(CCCc2ccccc2)[nH]1`, with 12.8%; and `Cc1nc(NC(=O)C2CC2)sc1C`, with -8.88%.

For `O=C(Nc1cc(-c2nc3ncccc3o2)ccc1Cl)c1cccs1`, the “hERG current change (%, negative = inhibition) at 10uM” value is listed as -45.9%. Under `CC(=O)N1CCc2cc(S(=O)(=O)CCC(=O)N(C)c3cc(C)ccc3C)ccc21` stands 1.49%.

On to `Cc1nn(Cc2ccccc2)c(Cl)c1/C=C/C(=O)OC(C(=O)NC(N)=O)C(C)C` (stereo not shown), for which the “hERG current change (%, negative = inhibition) at 10uM” value is given as 16%.

Consider `Cn1nnc(NC(=O)c2ccc(Br)o2)n1`, for which the “hERG current change (%, negative = inhibition) at 10uM” value was determined as 20.4%. Then `CCOc1cc(/C=N/NC(=O)CCn2nc(C)cc2C)ccc1O`, with 24.4%; and `CN1Cc2cc(C(=O)c3ccccc3O)cnc2NC1=O`, with -3.74%. In the case of `CCCC1=Nc2cc(C(=O)N3CCN(c4ccccn4)CC3)ccc2Sc2ccc(C)cc21`, the “hERG current change (%, negative = inhibition) at 10uM” value came out at 13%.

Regarding `O=C(N[C@@H]1CCC(=O)N(CC[C@H](Sc2ccccc2)c2ccccc2)CC1)OCc1ccccc1`, the “hERG current change (%, negative = inhibition) at 10uM” value is reported as -24%. Then `C/C=C(\C)c1nnc(NC(=O)OCC)s1`, with 8.46%. Under `O=C(NCc1ccccn1)c1ccc(OC2CCN(Cc3ccc(F)cc3F)CC2)cc1` stands -25.9%.

As to `CCOP(=O)(OCC)/C(=N/OC(=O)c1cccc([N+](=O)[O-])c1)C(N)=O`, the “hERG current change (%, negative = inhibition) at 10uM” value was 12.9%.

Consider `COc1ccccc1CC(=O)Nc1c[nH]c(=O)[nH]c1=O`, for which the “hERG current change (%, negative = inhibition) at 10uM” value came out at 38.8%.

`N/C(=N\OC(=O)C(c1ccccc1)c1ccccc1)c1ccccn1`: the “hERG current change (%, negative = inhibition) at 10uM” value is reported as 8.35%. Regarding `COc1ccc(N2C(=O)[C@@H]3Cc4ccccc4CN3C2=O)cc1`, the “hERG current change (%, negative = inhibition) at 10uM” value is -4.81%. Under `COCCNC(=O)c1c(N)n(CCC(C)C)c2nc3ccccc3nc12` stands -15.1%.
